# According to the supplement of paper PMC9588766:
# Counter-ions that a name gives are not always drawn. In all, about 1,900 compounds were measured (“cell viability of compound + 1 nM pemigatinib relative to pemigatinib-only (DMSO) wells”: median about 0.95, lowest 2% from about 0.22 on). Some of the results follow.
# System: PDC-DUC18828
# Assay: cell viability of compound + 1 nM pemigatinib relative to pemigatinib-only (DMSO) wells (fraction); PDC-DUC18828 is a patient-derived cholangiocarcinoma cell line; higher = less growth inhibition
# Details: first compound 1 µM; pemigatinib concentration 1 nM; 72 h
# Experimental: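 Selleck Bioactive library screen in the patient-derived FGFR2 fusion-positive ICC cell line PDC-DUC18828 (500 cells/well). Each compound was tested at 1 uM with 1 nM pemigatinib, in triplicate, for 72 h. Viability was read by CellTiter-Glo and normalised to plate DMSO controls. Value is the paper's averaged normalised viability.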
row,Compound,cell viability
1,Cc1ccc(CNc2ncnc3ccc(-c4ccc(CO)o4)cc23)o1 + CCN1C(=O)N(c2c(F)c(OC)cc(OC)c2F)Cc2cnc3[nH]c(CN4CCOCC4)cc3c21 [pemigatinib],0.933
2,CN1C(C(=O)Nc2ccccn2)=C(O)c2sc(Cl)cc2S1(=O)=O [Lornoxicam] + CCN1C(=O)N(c2c(F)c(OC)cc(OC)c2F)Cc2cnc3[nH]c(CN4CCOCC4)cc3c21 [pemigatinib],1.12
3,CC12CC3CC(C)(C1)CC(N)(C3)C2 [Memantine HCl] + CCN1C(=O)N(c2c(F)c(OC)cc(OC)c2F)Cc2cnc3[nH]c(CN4CCOCC4)cc3c21 [pemigatinib],1.01
4,C[N+](C)(C)C[C@H](O)CC(=O)[O-] [L-carnitine] + CCN1C(=O)N(c2c(F)c(OC)cc(OC)c2F)Cc2cnc3[nH]c(CN4CCOCC4)cc3c21 [pemigatinib],0.945
5,C[N+](C)(C)CC(O)CC(=O)[O-] (racemic) [DL-Carnitine HCl] + CCN1C(=O)N(c2c(F)c(OC)cc(OC)c2F)Cc2cnc3[nH]c(CN4CCOCC4)cc3c21 [pemigatinib],0.968
6,CCS(=O)(=O)N1CCN(c2ccc(Nc3ncc(C(N)=O)c(NC4CC4)n3)cc2)CC1 + CCN1C(=O)N(c2c(F)c(OC)cc(OC)c2F)Cc2cnc3[nH]c(CN4CCOCC4)cc3c21 [pemigatinib],0.87
7,Cn1c(N2CCCCS2(=O)=O)nc(C(=O)NCc2ccc(F)cc2)c(O)c1=O + CCN1C(=O)N(c2c(F)c(OC)cc(OC)c2F)Cc2cnc3[nH]c(CN4CCOCC4)cc3c21 [pemigatinib],0.948
8,O=C(c1ccccc1)c1ccc2nc(NC(=O)c3csc(C4CCN(c5ncnc6ccsc56)CC4)n3)[nH]c2c1 + CCN1C(=O)N(c2c(F)c(OC)cc(OC)c2F)Cc2cnc3[nH]c(CN4CCOCC4)cc3c21 [pemigatinib],0.96
9,CC(C)(C)CC(C)(C)c1ccc(OCCOCC[N+](C)(C)Cc2ccccc2)cc1 [Benzethonium Chloride] + CCN1C(=O)N(c2c(F)c(OC)cc(OC)c2F)Cc2cnc3[nH]c(CN4CCOCC4)cc3c21 [pemigatinib],0.964
10,Cn1nnc2c(C(N)=O)ncn2c1=O [Temozolomide] + CCN1C(=O)N(c2c(F)c(OC)cc(OC)c2F)Cc2cnc3[nH]c(CN4CCOCC4)cc3c21 [pemigatinib],0.945
11,O=[N+]([O-])c1cn2c(n1)OC[C@@H](OCc1ccc(OC(F)(F)F)cc1)C2 + CCN1C(=O)N(c2c(F)c(OC)cc(OC)c2F)Cc2cnc3[nH]c(CN4CCOCC4)cc3c21 [pemigatinib],1.02
12,C=C1C(=O)O[C@H]2[C@H]1CC/C(C)=C/CC[C@@]1(C)O[C@@H]21 [(-)-Parthenolide] + CCN1C(=O)N(c2c(F)c(OC)cc(OC)c2F)Cc2cnc3[nH]c(CN4CCOCC4)cc3c21 [pemigatinib],0.727
13,COc1ccc(CCC(=O)Nc2nc3ccc(Cl)cc3s2)cc1OC + CCN1C(=O)N(c2c(F)c(OC)cc(OC)c2F)Cc2cnc3[nH]c(CN4CCOCC4)cc3c21 [pemigatinib],0.927
14,CCCCOc1ccc(C(=O)CCN2CCCCC2)cc1 [Dyclonine HCl] + CCN1C(=O)N(c2c(F)c(OC)cc(OC)c2F)Cc2cnc3[nH]c(CN4CCOCC4)cc3c21 [pemigatinib],1
15,C=C1CC[C@H](O)C/C1=C/C=C1\CCC[C@]2(C)[C@@H]([C@H](C)/C=C/[C@H](C)C(C)C)CC[C@@H]12 [Vitamin D2] + CCN1C(=O)N(c2c(F)c(OC)cc(OC)c2F)Cc2cnc3[nH]c(CN4CCOCC4)cc3c21 [pemigatinib],1.01
16,Nc1nc(N)c2nc(-c3ccccc3)c(N)nc2n1 [Triamterene] + CCN1C(=O)N(c2c(F)c(OC)cc(OC)c2F)Cc2cnc3[nH]c(CN4CCOCC4)cc3c21 [pemigatinib],0.953
17,Cc1ccc(C(=O)Cn2c3c(sc2=N)CCCC3)cc1 [Pifithrin-α (PFTα)] + CCN1C(=O)N(c2c(F)c(OC)cc(OC)c2F)Cc2cnc3[nH]c(CN4CCOCC4)cc3c21 [pemigatinib],0.925
18,CC(C)(C)NC(=O)[C@H]1CC[C@H]2[C@@H]3CC[C@H]4NC(=O)C=C[C@]4(C)[C@H]3CC[C@]12C [Finasteride] + CCN1C(=O)N(c2c(F)c(OC)cc(OC)c2F)Cc2cnc3[nH]c(CN4CCOCC4)cc3c21 [pemigatinib],0.925
19,C=CC[N+]1([C@H]2C[C@H]3[C@@H]4CC[C@H]5C[C@H](O)[C@@H](N6CCOCC6)C[C@]5(C)[C@H]4CC[C@]3(C)[C@H]2OC(C)=O)CCCC1 [Rocuronium Bromide] + CCN1C(=O)N(c2c(F)c(OC)cc(OC)c2F)Cc2cnc3[nH]c(CN4CCOCC4)cc3c21 [pemigatinib],0.955

row,Compound,cell viability
1,CC(ONC(=O)c1cc(C(F)(F)F)cc(C(F)(F)F)c1)C(=O)Nc1ccc(Cl)cc1 (stereo not drawn) + CCN1C(=O)N(c2c(F)c(OC)cc(OC)c2F)Cc2cnc3[nH]c(CN4CCOCC4)cc3c21 [pemigatinib],0.925
2,N#CC1(c2ccc(NC(=O)c3cccnc3NCc3ccncc3)cc2)CCCC1 [Apatinib] + CCN1C(=O)N(c2c(F)c(OC)cc(OC)c2F)Cc2cnc3[nH]c(CN4CCOCC4)cc3c21 [pemigatinib],0.99
3,OC[C@@H](O)CN1CCN(c2ccccc2)CC1 [Levodropropizine] + CCN1C(=O)N(c2c(F)c(OC)cc(OC)c2F)Cc2cnc3[nH]c(CN4CCOCC4)cc3c21 [pemigatinib],1.04
4,CC[C@H](c1ccc(O)cc1)[C@@H](CC)c1ccc(O)cc1 [Hexestrol] + CCN1C(=O)N(c2c(F)c(OC)cc(OC)c2F)Cc2cnc3[nH]c(CN4CCOCC4)cc3c21 [pemigatinib],0.936
5,Cc1c(Nc2ncccc2C(=O)O)cccc1C(F)(F)F [Flunixin Meglumin] + CCN1C(=O)N(c2c(F)c(OC)cc(OC)c2F)Cc2cnc3[nH]c(CN4CCOCC4)cc3c21 [pemigatinib],0.996
6,CC(=O)OCC(=O)[C@@]1(O)CC[C@H]2[C@@H]3CCC4=CC(=O)C=C[C@]4(C)[C@H]3[C@@H](O)C[C@@]21C [Prednisolone Acetate] + CCN1C(=O)N(c2c(F)c(OC)cc(OC)c2F)Cc2cnc3[nH]c(CN4CCOCC4)cc3c21 [pemigatinib],0.895
7,COc1ccc(CNc2nc(N3CCC[C@H]3CO)ncc2C(=O)NCc2ncccn2)cc1Cl [Avanafil] + CCN1C(=O)N(c2c(F)c(OC)cc(OC)c2F)Cc2cnc3[nH]c(CN4CCOCC4)cc3c21 [pemigatinib],0.962
8,COC(=O)N[C@H](C(=O)N1CC2(CC2)C[C@H]1c1nc(-c2ccc3c(c2)C(F)(F)c2cc(-c4ccc5[nH]c([C@@H]6[C@H]7CC[C@H](C7)N6C(=O)[C@@H](NC(=O)OC)C(C)C)nc5c4)ccc2-3)c[nH]1)C(C)C [Ledipasvir (GS5885)] + CCN1C(=O)N(c2c(F)c(OC)cc(OC)c2F)Cc2cnc3[nH]c(CN4CCOCC4)cc3c21 [pemigatinib],0.936
9,CN1CCN(C(=O)c2cc3cc(Cl)ccc3[nH]2)CC1 + CCN1C(=O)N(c2c(F)c(OC)cc(OC)c2F)Cc2cnc3[nH]c(CN4CCOCC4)cc3c21 [pemigatinib],0.897
10,Nc1nc(N)c2nc(-c3cccc(O)c3)c(-c3cccc(O)c3)nc2n1 + CCN1C(=O)N(c2c(F)c(OC)cc(OC)c2F)Cc2cnc3[nH]c(CN4CCOCC4)cc3c21 [pemigatinib],0.967
11,Cn1cnc2c(F)c(Nc3ccc(Br)cc3Cl)c(C(=O)NOCCO)cc21 [Selumetinib (AZD6244)] + CCN1C(=O)N(c2c(F)c(OC)cc(OC)c2F)Cc2cnc3[nH]c(CN4CCOCC4)cc3c21 [pemigatinib],0.787
12,CN(Cc1cc(Br)cc(Br)c1N)C1CCCCC1 [Bromhexine HCl] + CCN1C(=O)N(c2c(F)c(OC)cc(OC)c2F)Cc2cnc3[nH]c(CN4CCOCC4)cc3c21 [pemigatinib],1.07
13,C[C@H](CS)C(=O)N1CCC[C@H]1C(=O)O [Captopril] + CCN1C(=O)N(c2c(F)c(OC)cc(OC)c2F)Cc2cnc3[nH]c(CN4CCOCC4)cc3c21 [pemigatinib],1.03
14,NCCc1ccc(O)c(O)c1 [Dopamine HCl] + CCN1C(=O)N(c2c(F)c(OC)cc(OC)c2F)Cc2cnc3[nH]c(CN4CCOCC4)cc3c21 [pemigatinib],0.308
15,CC(=O)Oc1ccc(C(c2ccc(OC(C)=O)cc2)c2ccccn2)cc1 [Bisacodyl] + CCN1C(=O)N(c2c(F)c(OC)cc(OC)c2F)Cc2cnc3[nH]c(CN4CCOCC4)cc3c21 [pemigatinib],0.89
16,CCOC(=O)CC(=O)N1CCSC1COc1ccccc1OC (stereo not drawn) [Moguisteine] + CCN1C(=O)N(c2c(F)c(OC)cc(OC)c2F)Cc2cnc3[nH]c(CN4CCOCC4)cc3c21 [pemigatinib],0.855
17,CCC(C)(C)C(=O)O[C@H]1C[C@@H](C)C=C2C=C[C@H](C)[C@H](CC[C@@H]3C[C@@H](O)CC(=O)O3)[C@H]21 [Simvastatin] + CCN1C(=O)N(c2c(F)c(OC)cc(OC)c2F)Cc2cnc3[nH]c(CN4CCOCC4)cc3c21 [pemigatinib],0.865
18,O=C(CSc1nc2c(c(=O)n1-c1ccccc1)SCC2)Nc1ccc(-c2ccccc2)cn1 + CCN1C(=O)N(c2c(F)c(OC)cc(OC)c2F)Cc2cnc3[nH]c(CN4CCOCC4)cc3c21 [pemigatinib],1
19,CN(C[C@@H]1COCCO1)S(=O)(=O)Nc1ccc2ccc3ncc(-c4cnn(C)c4)cc3c(=O)c2c1 + CCN1C(=O)N(c2c(F)c(OC)cc(OC)c2F)Cc2cnc3[nH]c(CN4CCOCC4)cc3c21 [pemigatinib],0.832
